# Laboratory results taken from the BET-seq Pho4 binding data (Le et al. 2018).
# The list shows a part of the results. The energies were worked out here from pooled read counts, against the library average; single values are noisy.
# Target: T1, Pho4 (S. cerevisiae) (UniProt P07270)
# T1 sequence: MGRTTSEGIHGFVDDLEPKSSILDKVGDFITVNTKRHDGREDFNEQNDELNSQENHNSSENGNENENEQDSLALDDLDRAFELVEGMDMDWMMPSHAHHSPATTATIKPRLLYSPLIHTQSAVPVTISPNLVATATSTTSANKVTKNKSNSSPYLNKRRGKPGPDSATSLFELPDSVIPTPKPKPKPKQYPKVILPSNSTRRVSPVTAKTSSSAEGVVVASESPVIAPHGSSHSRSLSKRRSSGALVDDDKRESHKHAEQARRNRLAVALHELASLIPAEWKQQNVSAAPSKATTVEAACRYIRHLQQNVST
# Experiment: relative binding free energy (BET-seq); higher = weaker binding
# Conditions: reference: library average
row,Sequence,relative binding free energy
1,AGATTCACGTGAAGTG,0.38 kcal/mol
2,GGGATCACGTGGCGCT,0.14 kcal/mol
3,TATGTCACGTGTTTTA,0.04 kcal/mol
4,CGTATCACGTGTGTTG,0.01 kcal/mol
5,AGGCGCACGTGGTAGG,-0.13 kcal/mol
6,GTAAGCACGTGACTGG,0.1 kcal/mol
7,TAGGTCACGTGTGTCG,0.13 kcal/mol
8,CTGCTCACGTGAGGGT,0.32 kcal/mol
9,AGGAACACGTGAGTGG,0.09 kcal/mol
10,TGATGCACGTGTAAAG,0.02 kcal/mol
11,GTAGTCACGTGGTAGA,0 kcal/mol
12,TATAACACGTGTATGT,-0.04 kcal/mol
13,TGTAGCACGTGGGTCA,-0.26 kcal/mol
14,TGAAACACGTGTGTGT,0.11 kcal/mol
15,CTTTGCACGTGTGCAG,0.04 kcal/mol
16,AGTGGCACGTGTAGGC,-0.01 kcal/mol
17,CGAAGCACGTGTGGGC,0.03 kcal/mol
18,TAAGGCACGTGTACTT,-0.02 kcal/mol
19,GGTGGCACGTGAGTCT,0.23 kcal/mol
20,GATTACACGTGTGTCG,0.34 kcal/mol
21,GAATACACGTGGAGGT,0.02 kcal/mol
22,ATCTGCACGTGGGGTC,-0.14 kcal/mol
23,ATTGGCACGTGAGTGT,0.08 kcal/mol
24,GAGCTCACGTGTTTAG,0.34 kcal/mol
25,GAGTACACGTGGTACT,0.16 kcal/mol
26,AGAGGCACGTGATTGG,-0.13 kcal/mol

row,Sequence,relative binding free energy
1,TAGTGCACGTGTCAGG,-0.06 kcal/mol
2,GATGTCACGTGGGTCA,0.07 kcal/mol
3,ACGTGCACGTGGGTGG,-0.19 kcal/mol
4,AGTTTCACGTGTATGG,0.31 kcal/mol
5,GTGGACACGTGCAGGT,0.01 kcal/mol
6,GTGGGCACGTGCAAAG,0 kcal/mol
7,TGAAACACGTGTGGCG,-0.01 kcal/mol
8,GCGATCACGTGTTGGG,0.19 kcal/mol
9,AAAAACACGTGGTGTG,0.02 kcal/mol
10,GTATTCACGTGTGTGG,0.33 kcal/mol
11,GTGGTCACGTGAACGG,0.21 kcal/mol
12,TCATGCACGTGGGGTC,-0.26 kcal/mol
13,ATTGACACGTGGGTCG,-0.14 kcal/mol
14,GGTTTCACGTGTCCTG,0.19 kcal/mol
15,TTATTCACGTGTGAGA,0.28 kcal/mol
16,TTTGACACGTGGGTTA,-0.06 kcal/mol
17,GATTGCACGTGGGTGG,0.02 kcal/mol
18,TAAGTCACGTGTCTGT,-0.01 kcal/mol
19,GTGTGCACGTGTGGTG,0.05 kcal/mol
20,AAACACACGTGTGGGT,0.03 kcal/mol
21,TTTCACACGTGTCGGG,0.14 kcal/mol
22,ATGTACACGTGTTGGG,0.06 kcal/mol
23,TGCATCACGTGTGGTA,0.11 kcal/mol
24,TATGACACGTGGGGGG,-0.17 kcal/mol
25,TTGGGCACGTGGCCGT,-0.1 kcal/mol
26,TGGCTCACGTGGGTTG,0.08 kcal/mol

row,Sequence,relative binding free energy
1,ATTTTCACGTGATCTG,0.15 kcal/mol
2,TGGCGCACGTGAGGTC,0.14 kcal/mol
3,TTATTCACGTGCTGAA,0.25 kcal/mol
4,TGATACACGTGGTTAG,-0.02 kcal/mol
5,TTGTTCACGTGTCACT,0.28 kcal/mol
6,GTTTGCACGTGTTCAT,0.08 kcal/mol
7,TATTTCACGTGCTAGT,0.07 kcal/mol
8,GGGTACACGTGTTGCT,0.03 kcal/mol
9,TGATGCACGTGTGCAG,-0.07 kcal/mol
10,ATAGACACGTGATTAT,0.18 kcal/mol
11,TGCACCACGTGGGGGT,-0.33 kcal/mol
12,TTTGTCACGTGAATAT,0.34 kcal/mol
13,TTTTTCACGTGGATAC,0.22 kcal/mol
14,TAGTTCACGTGCATGG,0.19 kcal/mol
15,ATGGCCACGTGGCAGT,-0.08 kcal/mol
16,TATCTCACGTGTTGTG,0.19 kcal/mol
17,AGGGCCACGTGGGGAT,-0.42 kcal/mol
18,TGGTTCACGTGGGTAC,-0.08 kcal/mol
19,TGTCCCACGTGAGTGT,0 kcal/mol
20,TGGCTCACGTGGGGGG,0.14 kcal/mol
21,CTTGGCACGTGTGTTG,-0.08 kcal/mol
22,ATAGACACGTGGTGGT,-0.09 kcal/mol
23,CGGGTCACGTGTGTAG,0.08 kcal/mol
24,GTTGTCACGTGGAGCC,0.15 kcal/mol
25,CGGGGCACGTGGATCG,-0.06 kcal/mol
26,GGTGTCACGTGGATTC,0.16 kcal/mol

row,Sequence,relative binding free energy
1,GGGTTCACGTGGCTAG,0.42 kcal/mol
2,TTAGTCACGTGTAGGC,0 kcal/mol
3,GTGGGCACGTGCAAGA,-0.08 kcal/mol
4,TCGTGCACGTGGTATT,-0.16 kcal/mol
5,CTTTGCACGTGGACGT,0.07 kcal/mol
6,GCATTCACGTGGTTGG,0.21 kcal/mol
7,AATATCACGTGGATGT,0.14 kcal/mol
8,TAACACACGTGGTGTG,-0.16 kcal/mol
9,TTGATCACGTGAAAGG,0.32 kcal/mol
10,TATAGCACGTGTGCAG,-0.02 kcal/mol
11,TGGGACACGTGGTGTC,-0.09 kcal/mol
12,CGGTTCACGTGCGGTG,0.21 kcal/mol
13,ATGAACACGTGGAGTA,0.09 kcal/mol
14,TTGGACACGTGCGTGA,0.01 kcal/mol
15,GGTGACACGTGGTTTT,0.08 kcal/mol
16,TCTTGCACGTGAATGT,0.31 kcal/mol
17,CATGTCACGTGTGTGC,0.12 kcal/mol
18,TGTCACACGTGTGGTG,0.05 kcal/mol
19,AATGACACGTGCAGGG,-0.01 kcal/mol
20,CGTTCCACGTGTGTGT,0.03 kcal/mol
21,AAGTTCACGTGGTTGA,0.34 kcal/mol
22,CAGTGCACGTGAACGG,0.4 kcal/mol
23,AAAAGCACGTGAGTTG,0.15 kcal/mol
24,TGTTTCACGTGTAAAA,0.39 kcal/mol
25,GAAGGCACGTGAAGGT,0.24 kcal/mol
26,TTAACCACGTGGTTGG,-0.26 kcal/mol

row,Sequence,relative binding free energy
1,GTCGTCACGTGGGAAG,0.04 kcal/mol
2,ATGCGCACGTGTTGCT,-0.13 kcal/mol
3,ATAAGCACGTGGATGG,-0.12 kcal/mol
4,TTTGGCACGTGTCGGC,-0.02 kcal/mol
5,GTCATCACGTGGGCAT,0.23 kcal/mol
6,GAGTACACGTGTGCGT,0.17 kcal/mol
7,GGCGTCACGTGACGTT,0.36 kcal/mol
8,TATGGCACGTGTAGAA,-0.13 kcal/mol
9,GGATTCACGTGCTGGA,0.33 kcal/mol
10,GGCGACACGTGGTGGA,0.18 kcal/mol
11,ATGGTCACGTGTGTCA,0.03 kcal/mol
12,TGGAGCACGTGGTGGT,-0.15 kcal/mol
13,AAGTCCACGTGAGTGT,0.17 kcal/mol
14,GGAGGCACGTGTGGGG,0.01 kcal/mol
15,TATAACACGTGTAGTG,-0.04 kcal/mol
16,AGAAACACGTGGTTGT,0.02 kcal/mol
17,TGGCTCACGTGTGGGT,0.29 kcal/mol
18,TGTTTCACGTGGTAAT,0.24 kcal/mol
19,GAAATCACGTGTATTA,0.3 kcal/mol
20,TTAGACACGTGGTCTT,-0.09 kcal/mol
21,TAATTCACGTGTGACG,0.38 kcal/mol
22,TTAGGCACGTGCTGGG,-0.16 kcal/mol
23,CGGGCCACGTGGTTAG,-0.13 kcal/mol
24,GGTGTCACGTGCGGTA,0.04 kcal/mol
25,TGTATCACGTGGATTC,0.19 kcal/mol
26,AAGAACACGTGGTAGT,0.01 kcal/mol

row,Sequence,relative binding free energy
1,GATGGCACGTGTCGGT,0.04 kcal/mol
2,AGGTTCACGTGGGCAT,0.29 kcal/mol
3,GAATTCACGTGGTTTT,0.48 kcal/mol
4,TTCTGCACGTGGGCGG,0.01 kcal/mol
5,AGGGGCACGTGAATGG,0.21 kcal/mol
6,TTATTCACGTGTTTGC,0.22 kcal/mol
7,CGTGACACGTGAGGGC,0.19 kcal/mol
8,CGTTTCACGTGTATTG,0.35 kcal/mol
9,TGGTACACGTGGGGAT,-0.02 kcal/mol
10,TGCATCACGTGTAGGT,0.23 kcal/mol
11,TTGAGCACGTGTAAGT,0 kcal/mol
12,TCGTCCACGTGGGGTA,-0.19 kcal/mol
13,AAGGGCACGTGCTGAG,-0.12 kcal/mol
14,GTGTCCACGTGGGTGA,0 kcal/mol
15,GTATTCACGTGTTGCT,0.23 kcal/mol
16,TGACGCACGTGTGTAT,0.05 kcal/mol
17,TTTTTCACGTGTAGTG,0.34 kcal/mol
18,TCGTGCACGTGATGGC,0.16 kcal/mol
19,AGTGACACGTGAGAGT,0.19 kcal/mol
20,CGGAACACGTGGGGGG,-0.05 kcal/mol
21,GTATGCACGTGAGAAG,0.37 kcal/mol
22,TCGATCACGTGTTGTT,-0.01 kcal/mol
23,GGGATCACGTGTTTCT,0.29 kcal/mol
24,TTGACCACGTGATGAT,0.28 kcal/mol
25,GGTTTCACGTGTTGAC,0.3 kcal/mol
26,GGGCACACGTGGTCTG,-0.05 kcal/mol

row,Sequence,relative binding free energy
1,TGTCGCACGTGGAGTA,0.1 kcal/mol
2,CTTGTCACGTGTGCTG,-0.01 kcal/mol
3,CTTTGCACGTGCGGGG,-0.11 kcal/mol
4,TGCTTCACGTGAGTGG,0.37 kcal/mol
5,GTGGACACGTGAATGA,0.24 kcal/mol
6,ATTGGCACGTGGGTGT,-0.18 kcal/mol
7,TTATGCACGTGCTGGA,-0.15 kcal/mol
8,TTATTCACGTGCGGGA,0.18 kcal/mol
9,ACGGGCACGTGATGGC,0.03 kcal/mol
10,TAGGTCACGTGATGCG,0.24 kcal/mol
11,TGCGTCACGTGCGGTA,0.09 kcal/mol
12,AGGCTCACGTGTTGTT,0.32 kcal/mol
13,TTCTACACGTGTAGTG,0.22 kcal/mol
14,ATTTGCACGTGAATTT,0.27 kcal/mol
15,TTAGACACGTGGACGG,0.06 kcal/mol
16,GTCGCCACGTGGGTGG,-0.1 kcal/mol
17,TTATACACGTGCGTGA,-0.1 kcal/mol
18,TCTTGCACGTGTTTAG,0 kcal/mol
19,TGAGCCACGTGTATGT,0.02 kcal/mol
20,GGGGACACGTGAGAAG,0.39 kcal/mol
21,TAAGTCACGTGTTAAT,0.13 kcal/mol
22,CTGTTCACGTGGGCGT,0.11 kcal/mol
23,CGGAGCACGTGAAGGA,0.35 kcal/mol
24,GGGATCACGTGGGGTG,0.12 kcal/mol
25,GGCGTCACGTGAGGTT,0.28 kcal/mol
26,AGGGACACGTGGGGCC,-0.05 kcal/mol

row,Sequence,relative binding free energy
1,TTTTTCACGTGTATCG,0.43 kcal/mol
2,GGTTACACGTGTCGGC,0.43 kcal/mol
3,TGTGGCACGTGGGACG,-0.22 kcal/mol
4,TGGTGCACGTGTTGAA,0.01 kcal/mol
5,TTTTACACGTGTTGAT,0.11 kcal/mol
6,AATCGCACGTGGTTAA,0.02 kcal/mol
7,AGTGACACGTGATGTC,0.25 kcal/mol
8,TTGCACACGTGATTTG,0.12 kcal/mol
9,AAATCCACGTGTGGGG,0.04 kcal/mol
10,TGGTTCACGTGAGAGT,0.37 kcal/mol
11,TTAGACACGTGGGTGG,-0.02 kcal/mol
12,ATTAGCACGTGAGGTT,0.24 kcal/mol
13,GAGTACACGTGAGTAG,0.21 kcal/mol
14,GAAGGCACGTGTAGGA,-0.07 kcal/mol
15,ATGCGCACGTGAGAGG,0.12 kcal/mol
16,TGGGACACGTGAGAGT,0.19 kcal/mol
17,TGGTTCACGTGTCATT,0.29 kcal/mol
18,AATTGCACGTGATGTT,0.17 kcal/mol
19,TGTGTCACGTGGAAGA,0.07 kcal/mol
20,TATATCACGTGGGGGT,0.07 kcal/mol
21,TATGTCACGTGTGCGT,0.02 kcal/mol
22,GGGGACACGTGGATTA,0.1 kcal/mol
23,TGCGTCACGTGTCGGT,0.07 kcal/mol
24,GGGATCACGTGGTGGT,0.24 kcal/mol
25,TGAGTCACGTGATGGA,0.3 kcal/mol
26,AATTTCACGTGATTGT,0.34 kcal/mol

row,Sequence,relative binding free energy
1,CGTTTCACGTGGTAGA,0.13 kcal/mol
2,AATGCCACGTGGTGGG,-0.16 kcal/mol
3,TAGTACACGTGGAGTT,0.14 kcal/mol
4,GAATACACGTGTTAGT,0.14 kcal/mol
5,CGTAGCACGTGAAGTT,0.19 kcal/mol
6,TTGTTCACGTGTATCG,0.17 kcal/mol
7,AGAGGCACGTGTTAGC,-0.05 kcal/mol
8,ATTTTCACGTGGTACT,0.18 kcal/mol
9,CGCTTCACGTGGGGAT,0.11 kcal/mol
10,TCTTACACGTGGGTGT,-0.02 kcal/mol
11,TTATGCACGTGAATGG,0.3 kcal/mol
12,TTAGCCACGTGTGATT,0.02 kcal/mol
13,TTACACACGTGTGGGA,0.02 kcal/mol
14,CGGGGCACGTGGTAGG,-0.13 kcal/mol
15,CGACTCACGTGGTGTG,0.03 kcal/mol
16,TCAATCACGTGGGAGG,0.1 kcal/mol
17,CAGTACACGTGTTGGG,0.08 kcal/mol
18,CTGTGCACGTGATGGT,0.08 kcal/mol
19,AGAGTCACGTGGTCAT,0.06 kcal/mol
20,TGGTGCACGTGTGGCA,0.03 kcal/mol
21,TAACACACGTGTGGGG,-0.06 kcal/mol
22,GGAGCCACGTGCGGTG,-0.11 kcal/mol
